The other results are listed elsewhere or left out.
target: T1, OsWOX13 (Oryza sativa, UniProt Q5QMM3 1-267); assay: protein-binding microarray (RPBM); PBS, 2% BSA, 51.3 ng/ul salmon testes DNA, 50 uM zinc acetate, 200 nM TF, 25 C, 1 h; high values mean tight binding; conditions: protein: recombinant; tags: N-terminal polyhistidine and DsRed monomer fusion (pET32a); label: CyDye5-dUTP incorporated in the synthesized complementary strand; 3' TTTTT single-stranded linker to array surface; dsDNA, one strand shown
T1 sequence: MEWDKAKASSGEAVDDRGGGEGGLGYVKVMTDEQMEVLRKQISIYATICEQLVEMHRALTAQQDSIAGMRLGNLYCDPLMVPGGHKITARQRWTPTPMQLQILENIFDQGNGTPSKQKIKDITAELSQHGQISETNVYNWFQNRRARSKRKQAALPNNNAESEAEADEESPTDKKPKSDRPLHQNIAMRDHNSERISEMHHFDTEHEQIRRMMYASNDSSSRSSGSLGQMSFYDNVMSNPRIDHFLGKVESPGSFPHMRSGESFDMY
How it was run: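 Transcription factors were each fused at the N-terminus to a polyhistidine tag plus DsRed and expressed in E. coli BL21-CodonPlus before Ni–NTA purification. Binding to a double-stranded custom Agilent array was carried out with 200 nM protein at 25 °C for 1 h in PBS, 2% BSA, salmon testes DNA and 50 µM zinc acetate. The binding signal is per-feature fluorescence intensity, in arbitrary units, on an Axon 4000B scanner.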

How did the binding signal turn out when “CCCTTAATGTAAATAGGTCTTCAGGAGAGAGAATACTCGGCGGAGTCACCTAGTGCAG” was run?
The binding signal was 5230 fluorescence intensity (a.u.).

Which binding signal does the source give for “ATTTGTTAATTATTTAAATAACTTCTTATATTTTCGTAGACGGAGTCACCTAGTGCAG” here?
The binding signal was 23500 fluorescence intensity (a.u.).

“AATTGACGGAGATAGATTCTAATAGCTCGAGTGGACGTCCCGGAGTCACCTAGTGCAG” was tested. Which binding signal did it give?
Its binding signal is 7650 fluorescence intensity (a.u.).

“TCATCAGCAATCACAACTGAATTTACAGTCTATAGGCTCCCGGAGTCACCTAGTGCAG” was tested. Which binding signal did it give?
The binding signal was 5400 fluorescence intensity (a.u.).

How did the binding signal turn out when “TGGTAAAACAAATTGAAGGAGAGTAACATGAACTTATTCGCGGAGTCACCTAGTGCAG” was run?
The binding signal was 7020 fluorescence intensity (a.u.).

With “AATTCCGATTAGAATTGGATTGATAAATCCGTTAAAACAACGGAGTCACCTAGTGCAG” as the sequence, how does the binding signal read?
Its binding signal is 10900 fluorescence intensity (a.u.).

With “ATTAGTTCATAATTAACCATAAATGCTACCATGCTAATGACGGAGTCACCTAGTGCAG” as the sequence, how does the binding signal read?
The binding signal was 5410 fluorescence intensity (a.u.).

“TTAATTAGGAGATATTGATTGATAAACGTACCTCTTGGTGCGGAGTCACCTAGTGCAG” was tested. Which binding signal did it give?
The binding signal was 65300 fluorescence intensity (a.u.).

How did the binding signal turn out when “TAAGGGTTAATTGGATCCACGCTATTGCAGATATGTCAATCGGAGTCACCTAGTGCAG” was run?
Its binding signal is 14300 fluorescence intensity (a.u.).

Which binding signal does the source give for “GTTCTAGACTTTAATTATCTGTATGTATAATATATATATCCGGAGTCACCTAGTGCAG” here?
Its binding signal is 4680 fluorescence intensity (a.u.).

With “TTAATAGCCATCTTGTCAATTTAAATTCACTGTAATTTCACGGAGTCACCTAGTGCAG” as the sequence, how does the binding signal read?
The binding signal was 13300 fluorescence intensity (a.u.).

For “TATACACATACTGATTAATTAATGGCTGTTGATTAATTAGCGGAGTCACCTAGTGCAG”, which binding signal is on record?
The binding signal was 33500 fluorescence intensity (a.u.).

For “ATTGTCATAAAATTTCATAATTGTATGCATGGTCACCGGTCGGAGTCACCTAGTGCAG”, which binding signal is on record?
Its binding signal is 3710 fluorescence intensity (a.u.).

Which binding signal does the source give for “AAAATTTTAACTATTAATAATTTCTCAAACCGTTTGGTTTCGGAGTCACCTAGTGCAG” here?
Its binding signal is 15800 fluorescence intensity (a.u.).

Which binding signal does the source give for “TTAAATAGATGCACATATTTGACAACTTAAATATGAACAACGGAGTCACCTAGTGCAG” here?
Its binding signal is 5060 fluorescence intensity (a.u.).

For “AGTTTGATGGATTTCACCCGGAGATACACCGTACGATTTACGGAGTCACCTAGTGCAG”, which binding signal is on record?
The binding signal was 8080 fluorescence intensity (a.u.).

How did the binding signal turn out when “TCAATCACATGATTGATACTGGTGTACCTCCGGACACAGCCGGAGTCACCTAGTGCAG” was run?
The binding signal was 46300 fluorescence intensity (a.u.).

For “CTATTTCTATAAATTGATCATTTGGGCACTCAATTGTTTCCGGAGTCACCTAGTGCAG”, which binding signal is on record?
Its binding signal is 11900 fluorescence intensity (a.u.).

“TTATACGAGTGACAGATGGCAAATCAGGAAGTGATTAGGACGGAGTCACCTAGTGCAG” was tested. Which binding signal did it give?
The binding signal was 4270 fluorescence intensity (a.u.).

How did the binding signal turn out when “CCTGCTATGATTTATGGACAAGATACATTGCGTTCTCACTCGGAGTCACCTAGTGCAG” was run?
The binding signal was 7850 fluorescence intensity (a.u.).

“TTTGACATGGAAACTCATAACTGCGTTTAAAATAGGATGGCGGAGTCACCTAGTGCAG” was tested. Which binding signal did it give?
Its binding signal is 8720 fluorescence intensity (a.u.).

How did the binding signal turn out when “GAAATTGGAGATGATGTGACTGAAAAGTTGTGAGTGTATGCGGAGTCACCTAGTGCAG” was run?
The binding signal was 13100 fluorescence intensity (a.u.).

“ATCACGTGATTAAAACAGTAATTATCGAGCACGGAAGGAACGGAGTCACCTAGTGCAG” was tested. Which binding signal did it give?
The binding signal was 31200 fluorescence intensity (a.u.).

Which binding signal does the source give for “CGCAATTAGACAAAACAAATCACACTCGCTTCGCTAATCGCGGAGTCACCTAGTGCAG” here?
The binding signal was 22400 fluorescence intensity (a.u.).

With “ACATATAATTATAATTGAATGGGTTATGTTTCATTTGTATCGGAGTCACCTAGTGCAG” as the sequence, how does the binding signal read?
The binding signal was 35900 fluorescence intensity (a.u.).

For “CTATTCAAATCAGGCCCATTAATTTTGTCACTTTCTCTATCGGAGTCACCTAGTGCAG”, which binding signal is on record?
Its binding signal is 9970 fluorescence intensity (a.u.).

“GAAAATAGACCTAATCAAATGTAAAACAGTGGTAAATGTACGGAGTCACCTAGTGCAG” was tested. Which binding signal did it give?
Its binding signal is 4980 fluorescence intensity (a.u.).

For “GGCGATTGAATTGGATGCCTTGAATCTCTCCCAAGGGGTCCGGAGTCACCTAGTGCAG”, which binding signal is on record?
The binding signal was 8250 fluorescence intensity (a.u.).

How did the binding signal turn out when “AAACGATAATTATGTTCAATTATAATAAAGAGAGGAGACGCGGAGTCACCTAGTGCAG” was run?
The binding signal was 34200 fluorescence intensity (a.u.).

“GCCTGATTGTCGAATCCTGTTCTGCATGTGCCACTGCAGACGGAGTCACCTAGTGCAG” was tested. Which binding signal did it give?
Its binding signal is 41700 fluorescence intensity (a.u.).

Which binding signal does the source give for “ATTTAATTATTTCACTAATATAATAATGCCAAAATTTTGACGGAGTCACCTAGTGCAG” here?
The binding signal was 21400 fluorescence intensity (a.u.).

“GGCTGAGGGAGGTAATTTAGTTAGCAACAAGAGATAAGGGCGGAGTCACCTAGTGCAG” was tested. Which binding signal did it give?
Its binding signal is 7600 fluorescence intensity (a.u.).

For “AGCCGATTGGTTGTTCATTGCCTTGCAGAAAGTCAGAAGCCGGAGTCACCTAGTGCAG”, which binding signal is on record?
The binding signal was 6560 fluorescence intensity (a.u.).

For “CCATGTGATTTGTTCCTTGGCTCTTCCACTCTCTAGCTCCCGGAGTCACCTAGTGCAG”, which binding signal is on record?
The binding signal was 30700 fluorescence intensity (a.u.).

How did the binding signal turn out when “TAATTAAGATAATTTCTTCGGGCAATTTATTTAACCAATTCGGAGTCACCTAGTGCAG” was run?
Its binding signal is 3900 fluorescence intensity (a.u.).

Which binding signal does the source give for “TATTAAGAATTAGATTAGGATTAGGATTGTGTCAATGTTCCGGAGTCACCTAGTGCAG” here?
Its binding signal is 4860 fluorescence intensity (a.u.).

How did the binding signal turn out when “TCCATTGATTGAGGAATAGTGCCAGCTTTAGATTTGCTCCCGGAGTCACCTAGTGCAG” was run?
The binding signal was 53400 fluorescence intensity (a.u.).

Which binding signal does the source give for “GCATTCTTGATAGACAGCTGAACAACTGGACTATCCAGTGCGGAGTCACCTAGTGCAG” here?
The binding signal was 14100 fluorescence intensity (a.u.).

Which binding signal does the source give for “ATCTTAAACTTCGTAAACTGGGATTTTCAGAAGCACTGTGCGGAGTCACCTAGTGCAG” here?
Its binding signal is 3350 fluorescence intensity (a.u.).

For “ATCAAATTGTTTGCTAGTGCCTCAACCTTCGTATACGAGACGGAGTCACCTAGTGCAG”, which binding signal is on record?
The binding signal was 4430 fluorescence intensity (a.u.).

With “GCACAAACGTGATAAAATTGATTGGAAAATCATTTGCAACCGGAGTCACCTAGTGCAG” as the sequence, how does the binding signal read?
Its binding signal is 41700 fluorescence intensity (a.u.).

With “GAATTATATTTGATTGAGGAAGTCAAACTACACCTTTTCCCGGAGTCACCTAGTGCAG” as the sequence, how does the binding signal read?
The binding signal was 28600 fluorescence intensity (a.u.).
